Values of other authors, collected in article PMC11006913.
Where a chain is given by its changes, count along the chain named. The list shows a part of the results.

Legend:
Conditions in all cases: PBM; conditions not shown; double strand, one strand shown; scale: upbm affinity estimate (log intensity, higher = more binding, comparable within an allelic series)
ARX (Homo sapiens) = ARX (Homo sapiens) (UniProt Q96QS3)
ARX L343Q (Homo sapiens) = ARX L343Q (Homo sapiens) (UniProt Q96QS3)
ARX P353L (Homo sapiens) = ARX P353L (Homo sapiens) (UniProt Q96QS3)
ARX P353R (Homo sapiens) = ARX P353R (Homo sapiens) (UniProt Q96QS3)
ARX R332H (Homo sapiens) = ARX R332H (Homo sapiens) (UniProt Q96QS3)
ARX T333N (Homo sapiens) = ARX T333N (Homo sapiens) (UniProt Q96QS3)
[1] = molecular target: T1, HESX1 E149K (Homo sapiens) (UniProt Q9UBX0)
T1 sequence: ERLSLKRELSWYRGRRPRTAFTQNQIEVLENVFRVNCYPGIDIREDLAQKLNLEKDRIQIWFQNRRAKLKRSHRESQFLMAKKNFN

[2] = molecular target: T2, HESX1 N125S (Homo sapiens) (UniProt Q9UBX0)
T2 sequence: T1 sequence with N31S, K55E

[3] = molecular target: T3, HESX1 R160C (Homo sapiens) (UniProt Q9UBX0)
T3 sequence: T1 sequence with K55E, R66C

ISX (Homo sapiens) = ISX (Homo sapiens) (UniProt Q2M1V0)
ISX R83Q (Homo sapiens) = ISX R83Q (Homo sapiens) (UniProt Q2M1V0)
[4] = molecular target: PROP1 R112Q (Homo sapiens) (UniProt O75360)
[5] = molecular target: PROP1 R99Q (Homo sapiens) (UniProt O75360)

Row | Sequence | binding signal (ARX (Homo sapiens)) | binding signal (ARX L343Q (Homo sapiens)) | binding signal (ARX P353L (Homo sapiens)) | binding signal (ARX P353R (Homo sapiens)) | binding signal (ARX R332H (Homo sapiens)) | binding signal (ARX T333N (Homo sapiens)) | binding signal [1] | binding signal [2] | binding signal [3] | binding signal (ISX (Homo sapiens)) | binding signal (ISX R83Q (Homo sapiens)) | binding signal [4] | binding signal [5]
1 | TCAATTAA [8-mer TCAATTAA] | 12.9 | 10.8 | 12.6 | 10.7 | 11 | 12.1 | 11.8 | 13.1 | 10.2 | 15.5 | 14.9 | 12.8 | 12.2
2 | TAAATTAA [8-mer TAAATTAA] | 12.7 | 10.7 | 12.1 | 10.6 | 10.8 | 11.9 | 11.1 | 11.3 | 10.2 | 14.8 | 13.4 | 12.6 | 11.9
3 | GTCAATTA [8-mer GTCAATTA] | 12.9 | 10.9 | 12.7 | 10.7 | 10.9 | 12.1 | 11.8 | 12.6 | 10.2 | 15.4 | 14.4 | 12.8 | 12.3
4 | AGTAATTG [8-mer AGTAATTG] | 12.6 | 11 | 12.3 | 10.9 | 11.1 | 11.8 | 11.5 | 11.7 | 10.5 | 14.8 | 13.2 | 12.7 | 12.3
5 | CCAATTAG [8-mer CCAATTAG] | 13.2 | 11 | 13 | 10.8 | 11 | 12.4 | 12 | 13.3 | 10.4 | 15.5 | 15.1 | 12.9 | 12.6
6 | CATAATTA [8-mer CATAATTA] | 13 | 11 | 12.6 | 10.9 | 11.1 | 12.1 | 11.7 | 12.3 | 10.5 | 15.3 | 13.9 | 12.8 | 12.3
7 | ACAATTAG [8-mer ACAATTAG] | 12.7 | 10.9 | 12.3 | 10.7 | 11 | 11.8 | 11.5 | 11.6 | 10.4 | 14.8 | 13.6 | 12.7 | 12.2
8 | AATTAGTC [8-mer AATTAGTC] | 12.9 | 10.9 | 12.5 | 10.7 | 11 | 12 | 11.4 | 11.3 | 10.3 | 14.7 | 13.5 | 12.7 | 12.2
9 | AATTAACA [8-mer AATTAACA] | 12.8 | 11 | 12.3 | 10.8 | 11 | 12 | 11.5 | 11.6 | 10.4 | 15.1 | 13.9 | 12.7 | 12.2
10 | ACTAATTG [8-mer ACTAATTG] | 13.1 | 11 | 12.7 | 10.8 | 11 | 12.2 | 11.8 | 12.6 | 10.4 | 15.3 | 14.5 | 12.8 | 12.5
11 | TAATTGCA [8-mer TAATTGCA] | 12.7 | 11 | 12.1 | 10.8 | 11.1 | 11.8 | 11.6 | 11.7 | 10.4 | 14.8 | 13.6 | 12.7 | 12.2
12 | AACAATTA [8-mer AACAATTA] | 12.6 | 10.9 | 12 | 10.8 | 11 | 11.8 | 11.4 | 11.6 | 10.5 | 14.8 | 13.4 | 12.6 | 12.1
13 | CAAATTAG [8-mer CAAATTAG] | 12.8 | 10.7 | 12.3 | 10.6 | 10.8 | 11.8 | 11.2 | 11.1 | 10.2 | 14.6 | 13 | 12.6 | 12
14 | CTAATTAG [8-mer CTAATTAG] | 13.5 | 11.2 | 13.4 | 10.9 | 11.3 | 12.7 | 12.4 | 14 | 10.4 | 15.6 | 15.7 | 13.1 | 12.6
15 | GGTAATTA [8-mer GGTAATTA] | 13.1 | 11 | 12.8 | 10.9 | 11.1 | 12.3 | 11.8 | 13.1 | 10.4 | 15.4 | 14.7 | 12.9 | 12.4
16 | CCTAATTA [8-mer CCTAATTA] | 13.3 | 10.9 | 13 | 10.8 | 11.1 | 12.4 | 11.9 | 13 | 10.4 | 15.5 | 14.8 | 12.9 | 12.4
17 | CAATTAGA [8-mer CAATTAGA] | 12.9 | 10.9 | 12.5 | 10.7 | 11 | 11.9 | 11.6 | 12 | 10.3 | 15 | 14 | 12.7 | 12.3
18 | ATCAATTA [8-mer ATCAATTA] | 13.2 | 11.1 | 12.8 | 10.9 | 11.3 | 12.3 | 12 | 13.2 | 10.4 | 15.4 | 14.7 | 12.9 | 12.5
19 | CAATTATC [8-mer CAATTATC] | 12.8 | 11 | 12.3 | 10.9 | 11.1 | 12 | 11.9 | 12.6 | 10.4 | 15.1 | 13.9 | 12.8 | 12.4
20 | CTAATTGC [8-mer CTAATTGC] | 12.9 | 10.9 | 12.5 | 10.7 | 10.9 | 12 | 11.7 | 12.1 | 10.4 | 15.2 | 14.1 | 12.7 | 12.3
